Some of the results follow.
What follows are sequences tested against T1, OsWOX13 (Oryza sativa, UniProt Q5QMM3 1-267) (assay: protein-binding microarray (RPBM); PBS, 2% BSA, 51.3 ng/ul salmon testes DNA, 50 uM zinc acetate, 200 nM TF, 25 C, 1 h; high values mean tight binding). Details: protein: recombinant; tags: N-terminal polyhistidine and DsRed monomer fusion (pET32a); label: CyDye5-dUTP incorporated in the synthesized complementary strand; 3' TTTTT single-stranded linker to array surface; dsDNA, one strand shown.
T1 sequence: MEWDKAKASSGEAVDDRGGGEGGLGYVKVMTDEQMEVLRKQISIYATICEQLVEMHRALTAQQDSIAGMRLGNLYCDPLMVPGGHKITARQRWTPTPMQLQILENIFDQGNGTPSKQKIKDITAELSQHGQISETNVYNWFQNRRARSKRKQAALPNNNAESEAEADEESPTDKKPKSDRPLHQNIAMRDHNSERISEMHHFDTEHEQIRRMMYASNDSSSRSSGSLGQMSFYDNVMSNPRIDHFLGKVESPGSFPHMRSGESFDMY
Summary of the method: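 For the binding signal, per-feature fluorescence intensity was read in arbitrary units on an Axon 4000B scanner. Before scanning, a 2% BSA-blocked custom Agilent array made double-stranded with Cy5-dUTP was washed after 1 h at 25 °C with 200 nM protein and 50 µM zinc acetate. The proteins were Ni–NTA-purified transcription factors with N-terminal polyhistidine and DsRed fusions, expressed in E. coli BL21-CodonPlus.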

Sequence	binding signal
AATGATATCCAATTAATAATCTTGCTGCAACACGAAAGCTCGGAGTCACCTAGTGCAG	30500 fluorescence intensity (a.u.)
TTAATGGAACTAATTTAATACTCCCTCTGTTTCATAATGTCGGAGTCACCTAGTGCAG	15800 fluorescence intensity (a.u.)
GTTGACTGACTCGGTCTCCTGATCGGCCCGGGCTGGTCCGCGGAGTCACCTAGTGCAG	16400 fluorescence intensity (a.u.)
TACGGACTAATTGGATCGGGACTATTACTACTACTTCAGGCGGAGTCACCTAGTGCAG	33200 fluorescence intensity (a.u.)
ATTGTAGATTGAATTTAACCATGCGTTTGGGTATAGATTTCGGAGTCACCTAGTGCAG	37400 fluorescence intensity (a.u.)
TTCTTACAGGCAAATTGATATATGATGCGCCATAGGGCTACGGAGTCACCTAGTGCAG	18200 fluorescence intensity (a.u.)
GTAATTAAAACTCAATTAATCACATATTAATGGTTTTCTTCGGAGTCACCTAGTGCAG	27800 fluorescence intensity (a.u.)
ATCCGTCATCTGATTTAATCTCATACGTCCGCTATCCTCCCGGAGTCACCTAGTGCAG	4210 fluorescence intensity (a.u.)
TTTAATAGCTAATTTATATAATAGTTACTTATAAACATGTCGGAGTCACCTAGTGCAG	22100 fluorescence intensity (a.u.)
GAAATTGATTCCATCGTACTTCTCGATGGAAAGCTCGACGCGGAGTCACCTAGTGCAG	34300 fluorescence intensity (a.u.)
AAACAAATTTGATTTGATTTAGGTCCAACAATGGATGCAACGGAGTCACCTAGTGCAG	27100 fluorescence intensity (a.u.)
AAACGTAATCTAATAACAAAACAAATTACAGAACTGTAAACGGAGTCACCTAGTGCAG	4460 fluorescence intensity (a.u.)
GTTAGATTAGGATCCAAAGTTTCACATATCCTCTTCTCTACGGAGTCACCTAGTGCAG	12200 fluorescence intensity (a.u.)
AATTAACTATAGATTGAAGGACCATTCCTGTTCTGAATCTCGGAGTCACCTAGTGCAG	11300 fluorescence intensity (a.u.)
CTCTCTCGTCTAATTTATACGGTCGAATCAAACGGTAATTCGGAGTCACCTAGTGCAG	5460 fluorescence intensity (a.u.)
CACGTGTACATGATAATATTGATTGCTAGGAGATATTAGCCGGAGTCACCTAGTGCAG	12400 fluorescence intensity (a.u.)
TTAACTAACATCTATATGAATTTAGACACGTATATGATGCCGGAGTCACCTAGTGCAG	3280 fluorescence intensity (a.u.)
TTAGTAGATTGCAAAATTTACATTTAGGAGTACACATTTCCGGAGTCACCTAGTGCAG	3830 fluorescence intensity (a.u.)
AACCCTGATTACGAGTTAAGGCCCCGCGCCATTTGTGGGGCGGAGTCACCTAGTGCAG	20900 fluorescence intensity (a.u.)
GAATCCTTAATTACTGGTTGTGCTGTGTGTTTGTGTTTCGCGGAGTCACCTAGTGCAG	9370 fluorescence intensity (a.u.)
GGTTTAATTAATTAATCGCGCCAACCCAGATGCTAATCAGCGGAGTCACCTAGTGCAG	50200 fluorescence intensity (a.u.)

Sequence	binding signal
CTCGCCATCTTCGCCGTCCTTGCTTTCTTATATAAATTTTCGGAGTCACCTAGTGCAG	4080 fluorescence intensity (a.u.)
AATTGATGAAATATTGAATTGAAGGTTTGAAGGATGTGGCCGGAGTCACCTAGTGCAG	19800 fluorescence intensity (a.u.)
ATACTGTAAAATGTTCTAATTAACATCACTTTAGAAAGATCGGAGTCACCTAGTGCAG	3660 fluorescence intensity (a.u.)
TTGACGCTGATCAAACCAAATTAATTACTCTCTCCGTTTCCGGAGTCACCTAGTGCAG	4920 fluorescence intensity (a.u.)
AAATATTCCTTGATTTGTTACAGCAAGCTCATTAGACAATCGGAGTCACCTAGTGCAG	3590 fluorescence intensity (a.u.)
ATTATTTGTGATTTGATTGCTAGTGATTTGAACTAATGGCCGGAGTCACCTAGTGCAG	64300 fluorescence intensity (a.u.)
AGTTTAATTAGGATATTTGAGCATTTTAATCTCAGTTTAGCGGAGTCACCTAGTGCAG	16200 fluorescence intensity (a.u.)
ATTTAAATTTAAATTATCATAAACCATATCAACTTATATACGGAGTCACCTAGTGCAG	35300 fluorescence intensity (a.u.)
CTCTAAATTTTAGATGTATAAATTTGAGGTGTACAAACTTCGGAGTCACCTAGTGCAG	16600 fluorescence intensity (a.u.)
TGTAAATTTCTGTGTTTAACTTTAATCGGCTATCTTATTTCGGAGTCACCTAGTGCAG	4460 fluorescence intensity (a.u.)
TATATAATTTTATAGGGTTACTAGCCCGCGCAAGCAAGCTCGGAGTCACCTAGTGCAG	3400 fluorescence intensity (a.u.)
GTTAATTAAACTATAGGCATCATGGTAATTTTCTTCAGGTCGGAGTCACCTAGTGCAG	31300 fluorescence intensity (a.u.)
CATTTATATTGATGTTAATGAATCAAGATAGATATATATGCGGAGTCACCTAGTGCAG	13000 fluorescence intensity (a.u.)
CTAAAATGGCAAAGTGACGGCGCGCTCTCCGTATTGGCATCGGAGTCACCTAGTGCAG	6540 fluorescence intensity (a.u.)
GAGCCAACCAATCACAGACCAGCATCCTGCCACGTGTCAGCGGAGTCACCTAGTGCAG	7860 fluorescence intensity (a.u.)
CCTTGATGAGCAGTTACACTGTATACGCGCCCATCCCTACCGGAGTCACCTAGTGCAG	21600 fluorescence intensity (a.u.)
TCTGGTCGTAAATTGACAACCAACCTTAAGAAAATCCAGGCGGAGTCACCTAGTGCAG	21300 fluorescence intensity (a.u.)
TATTTAATTTATTCTTATAATAATCAAGCAGATAATTCATCGGAGTCACCTAGTGCAG	11900 fluorescence intensity (a.u.)
CCGGTCTCCAAATCTTTATTAATTGCTTCCTCAAAACCCCCGGAGTCACCTAGTGCAG	3980 fluorescence intensity (a.u.)
GCTGTTTGCCCATCAATCAAGAAATGGCGAACAAGGCTGTCGGAGTCACCTAGTGCAG	16400 fluorescence intensity (a.u.)
AGTCTAACAAATTATTTCTGTACTTTGAGAATTGTTCTCTCGGAGTCACCTAGTGCAG	4820 fluorescence intensity (a.u.)

Sequence	binding signal
ATGGATTCTTGCAATCTTGATTGGTTTATAGTAGTACTTGCGGAGTCACCTAGTGCAG	13400 fluorescence intensity (a.u.)
AAATTGTGTAATTTTGAAATTAATTAGGGCGTTTAGTGAACGGAGTCACCTAGTGCAG	21900 fluorescence intensity (a.u.)
AATTAGATTAATACAAATATATGGTGGCAGTAATTGGATACGGAGTCACCTAGTGCAG	9430 fluorescence intensity (a.u.)
CATATTAAACGAACTGATTGCAAGAATTCAGTAAGAACTTCGGAGTCACCTAGTGCAG	13800 fluorescence intensity (a.u.)
CCTAGCTAATTTGTGCCACCTTAGATATGTTCTTAACATCCGGAGTCACCTAGTGCAG	5100 fluorescence intensity (a.u.)
GGTTTCTTTAATTATGTAACGTCTATGCCGACAAATAATGCGGAGTCACCTAGTGCAG	6580 fluorescence intensity (a.u.)
AAACAAGGCCTCCACCTGATTGATATCCCTTTGTCATCATCGGAGTCACCTAGTGCAG	12500 fluorescence intensity (a.u.)
TTTAATTTGTATTGGCTACAGGCTCACACGCTAACCATGACGGAGTCACCTAGTGCAG	11800 fluorescence intensity (a.u.)
GTAAACGACAACCTTAATTACTTCTCAAATTTTATCATGTCGGAGTCACCTAGTGCAG	9580 fluorescence intensity (a.u.)
ATCTGTAATTTATTTTATTATTAGTCTACGCTTAATACTTCGGAGTCACCTAGTGCAG	22000 fluorescence intensity (a.u.)
GCTGATAAATTACTAGTTGTCATTCATTAACCATTTATTGCGGAGTCACCTAGTGCAG	7720 fluorescence intensity (a.u.)
CAGTTAATAGAATAGAAAGGTGATGTGGTCCCGCACCTGACGGAGTCACCTAGTGCAG	8410 fluorescence intensity (a.u.)
GGATGAAACATCAATATTAATTGAACTACAATTTCTCAAACGGAGTCACCTAGTGCAG	5040 fluorescence intensity (a.u.)
ATCATAATTGAAGCTTCTCCTTGAAACAAGCAACCACATGCGGAGTCACCTAGTGCAG	44700 fluorescence intensity (a.u.)
TTCATGGATGACTTAATGGATTAGGAATAATTACTTATAGCGGAGTCACCTAGTGCAG	5970 fluorescence intensity (a.u.)
ATATAGATTGATAATTTAAAAGTAAAAGTAAGGTGATGTACGGAGTCACCTAGTGCAG	40500 fluorescence intensity (a.u.)
GTCTTGATTAATTTTAGAAAGACAGGCAGCACACGCTTTCCGGAGTCACCTAGTGCAG	42100 fluorescence intensity (a.u.)
GCTCATGATTTTCTATATATATATCCAAGCGAACTCCCACCGGAGTCACCTAGTGCAG	7150 fluorescence intensity (a.u.)
GTTCTGACGTTAATTTCGTGCTTGTTATTTAGTTGTATAGCGGAGTCACCTAGTGCAG	4050 fluorescence intensity (a.u.)
GCGGTTGATATGATAAAGATGAATTATAATGCACTAAACGCGGAGTCACCTAGTGCAG	4440 fluorescence intensity (a.u.)
GTTGATAAATGCAAATATAATGTGTAATAACTGATGAGTTCGGAGTCACCTAGTGCAG	12100 fluorescence intensity (a.u.)

Sequence	binding signal
AATTTGATTACAATTCGGACATAAGCATGATATATTTTACCGGAGTCACCTAGTGCAG	10900 fluorescence intensity (a.u.)
GGGTTAATTAGCTTTCACCATATATTGATGAAGTAATTGACGGAGTCACCTAGTGCAG	45800 fluorescence intensity (a.u.)
CATGGTGTTTTGATTAATGTGATTTAAATTATACTTGGTCCGGAGTCACCTAGTGCAG	23900 fluorescence intensity (a.u.)
CCACCATTCTTTTATTGATTTATGTGTGAGACTGACATGTCGGAGTCACCTAGTGCAG	8450 fluorescence intensity (a.u.)
CTCGCCCTTGATTGGTTCGATACACGTTTTCCCCTCGTTTCGGAGTCACCTAGTGCAG	38200 fluorescence intensity (a.u.)
GTGATATATGTGATTGACCAAACATACAGGTACAGTAATTCGGAGTCACCTAGTGCAG	28100 fluorescence intensity (a.u.)
GTTTTAATCATATATATCAATATGTGCTAATGCTATAGCACGGAGTCACCTAGTGCAG	5290 fluorescence intensity (a.u.)
AATAATTTATTTGCGAACTTAATATCATTATCATTGTTGTCGGAGTCACCTAGTGCAG	29200 fluorescence intensity (a.u.)
ATTTCCACTAATGATCATTACCTGTAATTCAAGCCCCTCTCGGAGTCACCTAGTGCAG	3570 fluorescence intensity (a.u.)
ATTTGATATATGCAAATTTAGTACTAGCCCCACACATATTCGGAGTCACCTAGTGCAG	4560 fluorescence intensity (a.u.)
TTTAATTATTTGTCCGACAAGTTTCCAAACAATCTAAATACGGAGTCACCTAGTGCAG	3880 fluorescence intensity (a.u.)
AAAGATTAACTTAGGTGGGAAGGACAACGAATCTGAATCCCGGAGTCACCTAGTGCAG	3190 fluorescence intensity (a.u.)
GCATGTTCGTCACAATCAATTAATGCATACTGATAGTGATCGGAGTCACCTAGTGCAG	30200 fluorescence intensity (a.u.)
TGTGGCTTAATTAGTTCAAGTAGCAGCTCCTCCTGCAGTCCGGAGTCACCTAGTGCAG	9370 fluorescence intensity (a.u.)
GTAATTTAATATGAGCTTCATTGGTGCAACAGTGGTGTGTCGGAGTCACCTAGTGCAG	3180 fluorescence intensity (a.u.)
GCCTTTCTCATTTTCTTTTCTTTTCCTTTTGTCCTCAGAACGGAGTCACCTAGTGCAG	4070 fluorescence intensity (a.u.)
TTGGAATTTGGGGATTGGGAAGAGAGAAATCAGATTGGAACGGAGTCACCTAGTGCAG	4300 fluorescence intensity (a.u.)
GCCAAATTGACAGAGTTACCTCGCTATATAAGGCTGCCCACGGAGTCACCTAGTGCAG	57600 fluorescence intensity (a.u.)
GGTGGTGGTGGTGGAGAGAGAGAGGAGTGCGTCGCCGACGCGGAGTCACCTAGTGCAG	9000 fluorescence intensity (a.u.)
AAAATTACAGTGTAATTACATCATAACTTACGTGTAATTACGGAGTCACCTAGTGCAG	15200 fluorescence intensity (a.u.)
CTTTCCAAAACTTCAATCACAACACAATAACATCCACCACCGGAGTCACCTAGTGCAG	13200 fluorescence intensity (a.u.)

— publication PMC7819943, “Rice protein-binding microarrays: a tool to detect cis-acting elements near promoter regions in rice”
